The values below come from publication PMC4336329 (PLoS ONE, 2015).

Among all 310,000 compounds or so, about 14,000 (4.5%) showed an effect of 50% or more. The effect is printed as a negative number. Some of the results follow.
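Note: peak tail current of the secondary pulse compared with the same well before compound.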

The target of the test is human ether-à-go-go-related gene (hERG) potassium channel (human, UniProt Q12809). Put plainly: primary screen, population patch clamp on CHO cells stably expressing hERG.
human ether-à-go-go-related gene (hERG) potassium channel, sequence (Q12809 whole entry, looked up): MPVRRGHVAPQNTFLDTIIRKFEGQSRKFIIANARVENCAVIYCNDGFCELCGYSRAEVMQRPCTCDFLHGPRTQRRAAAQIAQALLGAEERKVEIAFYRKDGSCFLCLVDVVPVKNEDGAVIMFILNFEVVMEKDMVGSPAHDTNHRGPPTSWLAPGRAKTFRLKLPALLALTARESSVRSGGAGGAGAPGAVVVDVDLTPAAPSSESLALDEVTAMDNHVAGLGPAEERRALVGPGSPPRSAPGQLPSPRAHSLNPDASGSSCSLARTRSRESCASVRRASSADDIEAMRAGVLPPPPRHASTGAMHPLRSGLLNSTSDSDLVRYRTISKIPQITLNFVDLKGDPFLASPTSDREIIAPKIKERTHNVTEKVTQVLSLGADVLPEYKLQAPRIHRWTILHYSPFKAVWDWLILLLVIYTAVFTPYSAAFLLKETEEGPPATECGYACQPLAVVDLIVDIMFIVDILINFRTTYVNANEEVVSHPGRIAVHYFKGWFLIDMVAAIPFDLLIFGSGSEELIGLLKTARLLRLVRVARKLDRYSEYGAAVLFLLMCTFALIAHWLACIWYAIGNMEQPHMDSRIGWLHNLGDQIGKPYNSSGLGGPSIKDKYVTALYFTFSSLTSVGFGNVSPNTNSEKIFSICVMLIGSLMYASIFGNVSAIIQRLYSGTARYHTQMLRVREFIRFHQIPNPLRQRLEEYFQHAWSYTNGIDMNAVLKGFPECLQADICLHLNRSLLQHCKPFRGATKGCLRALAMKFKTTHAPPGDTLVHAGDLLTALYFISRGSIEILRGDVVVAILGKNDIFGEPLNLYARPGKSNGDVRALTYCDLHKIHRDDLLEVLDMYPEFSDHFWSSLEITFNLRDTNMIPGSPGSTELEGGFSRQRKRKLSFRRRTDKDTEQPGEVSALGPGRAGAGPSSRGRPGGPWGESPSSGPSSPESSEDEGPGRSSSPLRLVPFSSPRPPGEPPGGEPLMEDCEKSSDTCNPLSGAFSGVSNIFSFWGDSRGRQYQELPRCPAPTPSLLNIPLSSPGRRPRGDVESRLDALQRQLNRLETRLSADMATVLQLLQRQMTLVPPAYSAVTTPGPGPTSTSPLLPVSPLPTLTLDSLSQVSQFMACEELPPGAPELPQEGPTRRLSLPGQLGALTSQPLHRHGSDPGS
As for `O=C(NCc1ccccn1)C1CCN(S(=O)(=O)N2CCCCC2)CC1`, the “hERG current change (%, negative = inhibition) at 10uM” value is 8.48%.

With `Cc1nc2cc(C(=O)O)ccc2s1`, the “hERG current change (%, negative = inhibition) at 10uM” value is 5.41%.

Take `Cc1ccc(-c2nc(CSCC(=O)N3CCOCC3)c(C)o2)cc1`: the “hERG current change (%, negative = inhibition) at 10uM” value was -7.1%.

For `COc1cc(C(C)=O)ccc1OCC(O)CN1CCN(c2cc(C)cc(C)c2)CC1` (stereo not drawn), the “hERG current change (%, negative = inhibition) at 10uM” value is recorded as -56.2%.

For `COCCC(=O)N1CCC(Oc2ccc(C(=O)NCc3ncc(C)[nH]3)cc2)CC1`, the “hERG current change (%, negative = inhibition) at 10uM” value worked out at 7.21%.

With `C=CCn1c(CCSCc2ccccc2)n[nH]c1=S`, the “hERG current change (%, negative = inhibition) at 10uM” value is recorded as -3.91%.

On to `COc1cccc(N2CCN(C(=O)/C=C/c3ccco3)CC2)c1`, for which the “hERG current change (%, negative = inhibition) at 10uM” value is -29.5%.

With `CCOC(=O)CNC(=O)C1COc2ccccc2O1` (stereo not drawn), the “hERG current change (%, negative = inhibition) at 10uM” value is -1.4%.

In the case of `CCOC(=O)CCSc1nc(C(C)(C)C)cc(C(F)(F)F)c1C#N`, the “hERG current change (%, negative = inhibition) at 10uM” value was 7.89%.

Turning to `COCCn1c(NCc2ccccc2)nc2c1c(=O)[nH]c(=O)n2C`, the “hERG current change (%, negative = inhibition) at 10uM” value is given as -8.43%.

As to `COc1ccc(NC(=O)COC(=O)c2ccc(Br)o2)cc1OC`, the “hERG current change (%, negative = inhibition) at 10uM” value is on record as 13.6%.

Regarding `O=C(O)c1ccc(Cl)c(S(=O)(=O)Nc2ccc3[nH]c(=O)[nH]c3c2)c1`, the “hERG current change (%, negative = inhibition) at 10uM” value was found to be 10.1%.

As for `CCOC(=O)CSc1nc2cc(S(=O)(=O)Nc3ccccc3OC)ccc2o1`, the “hERG current change (%, negative = inhibition) at 10uM” value is on record as -2.06%.

Consider `CCOCCCn1c(=S)[nH]c2cc(C(=O)N3CCN(C4CCCCC4)CC3)ccc2c1=O`, for which the “hERG current change (%, negative = inhibition) at 10uM” value is given as -21.8%.

Consider `O=C(Cc1ccccc1)NCc1ccccn1`, for which the “hERG current change (%, negative = inhibition) at 10uM” value is reported as 11%.

As for `CCC(C)NC(=O)c1ccc(COc2ccccc2Cl)cc1` (stereo not drawn), the “hERG current change (%, negative = inhibition) at 10uM” value is -22.3%.

`N#C/C(=C\c1ccc(Oc2ccc(C(F)(F)F)cc2[N+](=O)[O-])cc1)c1nc2ccccc2[nH]1`: the “hERG current change (%, negative = inhibition) at 10uM” value was 11.6%.

Turning to `COC(=O)c1ccc(NC(=O)c2nc(S(=O)(=O)Cc3cccc(C)c3)ncc2Cl)cc1`, the “hERG current change (%, negative = inhibition) at 10uM” value is 6.47%.

In the case of `O=C(O)CC(SCc1ccc(C(=O)O)o1)C(=O)O` (stereo not drawn), the “hERG current change (%, negative = inhibition) at 10uM” value came out at 6.94%.

On to `Cc1coc2c1c(C)cc1oc(=O)c(CC(=O)NCC(=O)NCC(=O)O)c(C)c12`, for which the “hERG current change (%, negative = inhibition) at 10uM” value is 13.9%.

Take `CN(C)c1ccc(NC(=O)/C=C/c2ccccc2Cl)cc1`: the “hERG current change (%, negative = inhibition) at 10uM” value is 7.03%.

With `N#Cc1ccc(Oc2ccc(C(F)(F)F)cc2NC(=O)c2ccc(F)cc2)cc1`, the “hERG current change (%, negative = inhibition) at 10uM” value is -70.2%.

As to `COc1cccc(N2C(N)=NC(N)=NC2(C)C)c1.Cl`, the “hERG current change (%, negative = inhibition) at 10uM” value is reported as 12.6%.

With `C/C(=N\NC(=O)c1ccncc1)c1cccs1`, the “hERG current change (%, negative = inhibition) at 10uM” value stood at 19.6%.

In the case of `CCOc1ccc(N(CC)C(=O)COc2cc(=O)n(C)c3ccccc23)cc1`, the “hERG current change (%, negative = inhibition) at 10uM” value is reported as -38.5%.

For `N#Cc1nnn2c1nc(N)c1c(F)cccc12`, the “hERG current change (%, negative = inhibition) at 10uM” value came to 21.5%.

Turning to `O=C(NCCC(=O)N1CCCCC1)c1ccccc1Cl`, the “hERG current change (%, negative = inhibition) at 10uM” value is on record as -14.2%.

With `COc1ccc(NC(=S)NCc2ccc(Cl)cc2)c(OC)c1`, the “hERG current change (%, negative = inhibition) at 10uM” value is 12%.

As for `CC1Cc2ccccc2N1C(=O)CO/N=C/c1ccccc1OC(F)F` (stereo not drawn), the “hERG current change (%, negative = inhibition) at 10uM” value is on record as -3.45%.

For the compound `COCCNC(=S)NNc1cccc(C(=O)O)c1`, the “hERG current change (%, negative = inhibition) at 10uM” value is -4.05%.

In the case of `O=C(N/N=C/c1cccn1-c1ccc([N+](=O)[O-])cc1)C(O)c1ccccc1` (stereo not drawn), the “hERG current change (%, negative = inhibition) at 10uM” value is listed as -21.8%.

Take `CCN(CC)C(=O)C(=O)c1cn(CCOc2ccccc2)c2ccccc12`: the “hERG current change (%, negative = inhibition) at 10uM” value was -2.44%.

`CCNC(=S)Nc1ccc2ncoc2c1`: the “hERG current change (%, negative = inhibition) at 10uM” value was found to be 13%.

`Cc1cccc(C(O)(C(=O)NNc2ccc3ccccc3[nH+]2)c2cccc(C)c2)c1.[Cl-]`: the “hERG current change (%, negative = inhibition) at 10uM” value was 5.65%.

On to `CC1=CC2=NC(=O)/C(=C\c3ccc(OC(=O)c4ccco4)cc3)C(=N)N2O1`, for which the “hERG current change (%, negative = inhibition) at 10uM” value stood at 10.1%.

Turning to `Cc1noc(C)c1C(=O)Nc1cccc2ncccc12`, the “hERG current change (%, negative = inhibition) at 10uM” value is given as 11.2%.

With `Cc1cc(C)nc(SCc2cc(=O)c(OC(=O)c3ccc(S(=O)(=O)N4CCCC4)cc3)co2)n1`, the “hERG current change (%, negative = inhibition) at 10uM” value is given as -8.73%.

As to `CCCNc1nc(C)cc(-c2cc(C(=O)NCc3ccccc3)on2)n1`, the “hERG current change (%, negative = inhibition) at 10uM” value worked out at 6.55%.

In the case of `CCCC(=O)Nc1ccc(N2CCN(CC)CC2)c(Cl)c1.Cl`, the “hERG current change (%, negative = inhibition) at 10uM” value was -47.8%.

Take `CCOC(=O)c1[nH]c2ccc(OC)cc2c1NC(=O)c1ccc(OC)c(OC)c1`: the “hERG current change (%, negative = inhibition) at 10uM” value is recorded as -21.1%.

`NC(=O)CNc1ncc(C(F)(F)F)cc1Cl`: the “hERG current change (%, negative = inhibition) at 10uM” value worked out at 18.1%.

Take `Cc1cccc(C)c1-n1c(SCC(=O)N2CC(=O)Nc3ccccc32)nc2ccccc2c1=O`: the “hERG current change (%, negative = inhibition) at 10uM” value is -0.373%.

In the case of `C[C@@H](C(=O)Nc1ccc2ccccc2c1)[C@@H]1C[C@@]1(C)[C@@H](NC(=O)c1cnccn1)c1ccccc1`, the “hERG current change (%, negative = inhibition) at 10uM” value was determined as 0.06%.

Regarding `COc1cccc(/C=C/C(=O)OCC(=O)Nc2ccccc2Sc2ccccc2)c1`, the “hERG current change (%, negative = inhibition) at 10uM” value is given as 11.7%.

As for `CCCOC(=O)CSc1nnc(-c2ccc(Cl)cc2Cl)o1`, the “hERG current change (%, negative = inhibition) at 10uM” value is given as -1.25%.

As to `COc1cccc(CN2CCCC(C(=O)c3ccccc3SC)C2)c1O` (stereo not drawn), the “hERG current change (%, negative = inhibition) at 10uM” value is -77.5%.

On to `COc1cccc(N2CCN(C(=O)c3cc4cc(Cl)ccc4[nH]3)CC2)c1`, for which the “hERG current change (%, negative = inhibition) at 10uM” value came out at 15.9%.

Turning to `COCCc1nc2ccc(C(=O)N(C)Cc3cccc(-n4nc(C)cc4C)c3)cc2o1`, the “hERG current change (%, negative = inhibition) at 10uM” value is -32.3%.

For `Cn1c(=O)[nH]c(=O)c2c1nc(NCc1ccco1)n2Cc1ccccc1Cl`, the “hERG current change (%, negative = inhibition) at 10uM” value is reported as 1.72%.

As to `COC(=O)c1[nH]c(C)c(/C(O)=C2\C(=O)C(=O)N(CCN(C)C)C2c2ccccc2OC)c1C` (stereo not drawn), the “hERG current change (%, negative = inhibition) at 10uM” value came to 15.3%.

As to `Cc1cccc(NC(=O)C2CCN(S(C)(=O)=O)CC2)c1C`, the “hERG current change (%, negative = inhibition) at 10uM” value is -1.7%.

In the case of `O=C(Nc1ccccc1N1CCCC1)c1ccc2ccccc2c1`, the “hERG current change (%, negative = inhibition) at 10uM” value stood at 8.73%.

For the compound `CNc1nc(-c2ccccc2)nc(-c2ccc(OC)cc2)c1C#N`, the “hERG current change (%, negative = inhibition) at 10uM” value was 1.2%.

For `O=c1[nH]c2c(s1)C(c1ccc(O)cc1)C1C3CCC(C3)C1S2` (stereo not drawn), the “hERG current change (%, negative = inhibition) at 10uM” value was determined as 9.32%.

Consider `COc1ccc(/C=N/NC(=O)C2(O)c3ccccc3-c3ccccc32)cc1`, for which the “hERG current change (%, negative = inhibition) at 10uM” value amounted to 14.8%.

As for `CC1CCCC(NC(=O)CCNC(=O)c2ccc([N+](=O)[O-])cc2)C1C` (stereo not drawn), the “hERG current change (%, negative = inhibition) at 10uM” value is listed as -44.3%.

Turning to `Cc1c(C(=O)NC2CC2)oc2ccc(S(=O)(=O)N3CCCCCC3)cc12`, the “hERG current change (%, negative = inhibition) at 10uM” value is -41.4%.
